Laboratory results: the supplement of paper PMC4604168 (melanoma cell lines)
Some of the results follow. Many values rest on one well or one pass, so single values are uncertain.
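Further: cells treated in 1,536-well plates, then fixed and DAPI-stained, with nuclei counted from automated high-throughput microscope images.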

The compounds below were run on UACC257 (assay: cell count relative to DMSO control; melanoma cells; higher = more viable cells). Conditions: library dose: standard library concentration; 72 h.
Compound `Cn1nnc2c(C(N)=O)ncn2c1=O` [temozolomide] + Oc1nc(-c2ccc(C(F)(F)F)cc2)nc2c1CSCC2 [XAV939] (first compound 10 µM, partner dose 10 µM) has a cell count of 85.2%. In the case of `O=C(Nc1cc(C(F)(F)F)cc(C(F)(F)F)c1)c1cc(Cl)ccc1O` + C[C@]1(c2nc3c(C(N)=O)cccc3[nH]2)CCCN1 [Veliparib] (first compound 0.08 µM, partner dose 7 µM), the cell count was 101%. Work on `O=C(O)c1ccc2c(c1)nc(Nc1cccc(Cl)c1)c1ccncc12` + O=C(Nc1ccccc1)c1cc([N+](=O)[O-])ccc1Cl [GW9662] (first compound 2 µM, partner dose 10 µM) yielded a cell count of 72.1%. With `O=C(O)c1ccc2c(c1)nc(Nc1cccc(Cl)c1)c1ccncc12` + Cn1cc(/C=C2\C(=O)Nc3cccnc32)c2ccccc21 [GW441756] (first compound 2 µM, partner dose 2 µM) the cell count was 73.2%. In the case of `O=C(O)[C@@H]1[O][Sb](=[O])([O][Sb]2(=[O])[O][C@H]([C@H](O)CO)[C@H](O)[C@H](C(=O)O)[O]2)[O][C@H]([C@H](O)CO)[C@@H]1O` (some centres not stated) [stibogluconate] + COc1ccc2c(c1)CCC1C2CCC2(C)C(NCCCCCCN3C(=O)C=CC3=O)CCC12 [U73122] (first compound 10 µM, partner dose 2 µM), the cell count was 114%.

What follows are compounds tested on UACC62 in the same assay as above. Conditions: library dose: standard library concentration; 72 h.
`O=C(Nc1cc(C(F)(F)F)cc(C(F)(F)F)c1)c1cc(Cl)ccc1O` + Nc1ncn([C@H]2C[C@H](O)[C@@H](CO)O2)c(=O)n1 [decitabine] (first compound 0.08 µM, partner dose 0.5 µM) was tested, and the cell count was 76.6%. In the case of `O=C(O)[C@@H]1[O][Sb](=[O])([O][Sb]2(=[O])[O][C@H]([C@H](O)CO)[C@H](O)[C@H](C(=O)O)[O]2)[O][C@H]([C@H](O)CO)[C@@H]1O` (some centres not stated) [stibogluconate] + N#Cc1c(O)c2c(-c3ccc(-c4ccccc4O)cc3)csc2[nH]c1=O [A769662] (first compound 10 µM, partner dose 10 µM), the cell count was 102%. In the case of `O=C(Nc1ccccc1)c1cc([N+](=O)[O-])ccc1Cl` + Cc1cc([N+](=O)[O-])ccc1NS(=O)(=O)c1cc(Cl)ccc1Cl [FH535] (first compound 10 µM, partner dose 5 µM), the cell count was 103%. `O=C(Nc1cc(C(F)(F)F)cc(C(F)(F)F)c1)c1cc(Cl)ccc1O` + Nc1ccn([C@@H]2O[C@H](CO)[C@@H](O)C2(F)F)c(=O)n1 [gemcitabine] (first compound 0.08 µM, partner dose 0.002 µM) gave a cell count of 95.7%. `O=C(Nc1cc(C(F)(F)F)cc(C(F)(F)F)c1)c1cc(Cl)ccc1O` + C=CCn1c(=O)c2cnc(Nc3ccc(N4CCN(C)CC4)cc3)nc2n1-c1cccc(C(C)(C)O)n1 [MK1775] (first compound 0.08 µM, partner dose 0.1 µM) gave a cell count of 52.8%. With `O=C(Nc1cc(C(F)(F)F)cc(C(F)(F)F)c1)c1cc(Cl)ccc1O` + CCCCCCCCCCCC1=C(O)C(=O)C=C(O)C1=O [Embelin] (first compound 0.08 µM, partner dose 6 µM) the cell count was 66.3%. `Cn1nnc2c(C(N)=O)ncn2c1=O` [temozolomide] + CCN(CC)CCCCNc1ncc2cc(-c3cc(OC)cc(OC)c3)c(NC(=O)NC(C)(C)C)nc2n1 [PD173074] (first compound 10 µM, partner dose 0.5 µM) gave a cell count of 84.2%. Compound `O=C(O)[C@@H]1[O][Sb](=[O])([O][Sb]2(=[O])[O][C@H]([C@H](O)CO)[C@H](O)[C@H](C(=O)O)[O]2)[O][C@H]([C@H](O)CO)[C@@H]1O` (some centres not stated) [stibogluconate] + Nc1ncn([C@H]2C[C@H](O)[C@@H](CO)O2)c(=O)n1 [decitabine] (first compound 10 µM, partner dose 0.5 µM) has a cell count of 76%. `O=C(O)c1ccc2c(c1)nc(Nc1cccc(Cl)c1)c1ccncc12` + C=CCn1c(=O)c2cnc(Nc3ccc(N4CCN(C)CC4)cc3)nc2n1-c1cccc(C(C)(C)O)n1 [MK1775] (first compound 2 µM, partner dose 0.1 µM) gave a cell count of 66.3%. Work on `O=C(O)c1ccc2c(c1)nc(Nc1cccc(Cl)c1)c1ccncc12` + COc1cc(N2CCC(N3CCN(C)CC3)CC2)ccc1Nc1ncc(Cl)c(Nc2ccccc2S(=O)(=O)C(C)C)n1 [NVP-TAE684] (first compound 2 µM, partner dose 0.4 µM) yielded a cell count of 83.5%. For `O=C(O)c1ccc2c(c1)nc(Nc1cccc(Cl)c1)c1ccncc12` + Cc1cc([N+](=O)[O-])ccc1NS(=O)(=O)c1cc(Cl)ccc1Cl [FH535] (first compound 2 µM, partner dose 5 µM), the cell count was 109%. With `O=C(Nc1cc(C(F)(F)F)cc(C(F)(F)F)c1)c1cc(Cl)ccc1O` + Cn1c(Nc2ccc(C(F)(F)F)cc2)nc2cc(Oc3ccnc(-c4ncc(C(F)(F)F)[nH]4)c3)ccc21 [CHIR265] (first compound 0.08 µM, partner dose 0.4 µM) the cell count was 46.6%. `O=C(O)[C@@H]1[O][Sb](=[O])([O][Sb]2(=[O])[O][C@H]([C@H](O)CO)[C@H](O)[C@H](C(=O)O)[O]2)[O][C@H]([C@H](O)CO)[C@@H]1O` (some centres not stated) [stibogluconate] + COc1cc2ncnc(Nc3ccc(Oc4ccccc4)cc3)c2cc1OC [SrcI1] (first compound 10 µM, partner dose 10 µM) was tested, and the cell count was 46.3%. `O=C(O)c1ccc2c(c1)nc(Nc1cccc(Cl)c1)c1ccncc12` + C#Cc1cccc(Nc2ncnc3cc(OCCOC)c(OCCOC)cc23)c1 [erlotinib] (first compound 2 µM, partner dose 4 µM) showed a cell count of 32.1%. `Cc1cc(N2CCOCC2)cc2[nH]c(-c3c(NC[C@@H](O)c4cccc(Cl)c4)cc[nH]c3=O)nc12` + Oc1cc(-c2nc(-c3ccccc3)[nH]c2-c2ccncc2)ccc1Cl [L779450] (first compound 1 µM, partner dose 1 µM) showed a cell count of 65.6%. Compound `O=C(O)[C@@H]1[O][Sb](=[O])([O][Sb]2(=[O])[O][C@H]([C@H](O)CO)[C@H](O)[C@H](C(=O)O)[O]2)[O][C@H]([C@H](O)CO)[C@@H]1O` (some centres not stated) [stibogluconate] + O=S(=O)(c1ccccc1)N(CC(F)(F)F)c1ccc(C(O)(C(F)(F)F)C(F)(F)F)cc1 [T0901317] (first compound 10 µM, partner dose 7 µM) has a cell count of 88.4%. With `O=C(O)[C@@H]1[O][Sb](=[O])([O][Sb]2(=[O])[O][C@H]([C@H](O)CO)[C@H](O)[C@H](C(=O)O)[O]2)[O][C@H]([C@H](O)CO)[C@@H]1O` (some centres not stated) [stibogluconate] + Cn1cncc1[C@@](N)(c1ccc(Cl)cc1)c1ccc2c(c1)c(-c1cccc(Cl)c1)cc(=O)n2C [tipifarnib] (first compound 10 µM, partner dose 0.05 µM) the cell count was 82.1%. Work on `O=C(Nc1cc(C(F)(F)F)cc(C(F)(F)F)c1)c1cc(Cl)ccc1O` + COc1ccc(COc2ccc(Cc3cnc(N)nc3N)cc2OC)cc1 [GW2580] (first compound 0.08 µM, partner dose 5 µM) yielded a cell count of 99.5%. In the case of `O=C(Nc1cc(C(F)(F)F)cc(C(F)(F)F)c1)c1cc(Cl)ccc1O` + Cc1cc([N+](=O)[O-])ccc1NS(=O)(=O)c1cc(Cl)ccc1Cl [FH535] (first compound 0.08 µM, partner dose 5 µM), the cell count was 124%. `O=C(Nc1cc(C(F)(F)F)cc(C(F)(F)F)c1)c1cc(Cl)ccc1O` + Cn1cc(/C=C2\C(=O)Nc3cccnc32)c2ccccc21 [GW441756] (first compound 0.08 µM, partner dose 2 µM) showed a cell count of 89%. `O=C(O)c1ccc2c(c1)nc(Nc1cccc(Cl)c1)c1ccncc12` + CCc1ccc(CCOc2ccc(CC3SC(=O)NC3=O)cc2)nc1 [pioglitazone] (first compound 2 µM, partner dose 10 µM) gave a cell count of 64.1%. Compound `Cc1cc(N2CCOCC2)cc2[nH]c(-c3c(NC[C@@H](O)c4cccc(Cl)c4)cc[nH]c3=O)nc12` + CC(C)CCN1c2nc(Nc3cc(F)c(O)c(F)c3)ncc2N(C)C(=O)C1C [BID1870] (first compound 1 µM, partner dose 1 µM) has a cell count of 80.8%. `O=C(Nc1ccccc1)c1cc([N+](=O)[O-])ccc1Cl` + COc1ccc(-c2ccc3c(N4CCOCC4)nc(N4C[C@@H](C)O[C@@H](C)C4)nc3n2)cc1CO [KU0063794] (first compound 10 µM, partner dose 0.1 µM) gave a cell count of 119%. Compound `O=C(O)c1ccc2c(c1)nc(Nc1cccc(Cl)c1)c1ccncc12` + O=c1cc(-c2cccc3c2Sc2ccccc2S3)oc(N2CCOCC2)c1 [KU55933] (first compound 2 µM, partner dose 5 µM) has a cell count of 60.1%. `O=C(O)c1ccc2c(c1)nc(Nc1cccc(Cl)c1)c1ccncc12` + c1cc(-c2cnn3cc(-c4ccc(OCCN5CCCCC5)cc4)cnc23)ccn1 [Dorsomorphin] (first compound 2 µM, partner dose 2 µM) was tested, and the cell count was 77.4%. `Cn1nnc2c(C(N)=O)ncn2c1=O` [temozolomide] + Cc1cc([N+](=O)[O-])ccc1NS(=O)(=O)c1cc(Cl)ccc1Cl [FH535] (first compound 10 µM, partner dose 5 µM) showed a cell count of 78.9%. In the case of `O=C(Nc1cc(C(F)(F)F)cc(C(F)(F)F)c1)c1cc(Cl)ccc1O` + COc1ccc2c(c1)CCC1C2CCC2(C)C(NCCCCCCN3C(=O)C=CC3=O)CCC12 [U73122] (first compound 0.08 µM, partner dose 2 µM), the cell count was 96.4%.
